About 11,000 (3.1%) of roughly 360,000 compounds were called active. Inconclusive means that the source gave no clear call. Such entries were picked first, then a sample of the others. Calls follow the shape of the dose curve; as a rule, active = well fitted inhibition curve with a large enough effect; inconclusive = small, poorly fitted or top-dose-only effect; inactive = no such curve, though single readings can be large or run the other way. Potencies of inconclusive entries are left out as doubtful fits.
target: Schistosoma mansoni thioredoxin glutathione reductase (TGR) (UniProt Q962Y6); assay: qHTS Assay for the Inhibitors of Schistosoma Mansoni Peroxiredoxins; settings: purified TGR, DTNB reduction, TNB absorbance 405 nm; activity change, negative = inhibition: at 114 µM (top of the series) unless noted; also: nearly all actives have a fitted effect of over 60% in size
Procedure, shortened: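 First, TGR (20 nM dispensed) and NADPH were mixed with compound. Second, a 15 min room-temperature incubation followed. Third, further NADPH and then DTNB were added to start the reaction. Finally, TNB absorbance was monitored kinetically.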
% is scaled to controls: 0 for no effect and ±100 for the full control effect; potency is read from the fitted curve at half-maximal effect; tags tell the direction and shape of the fitted curve.

Row | SMILES | activity change, negative = inhibition | Potency
1 | Cc1nc(-c2cc(C#N)c(Sc3ccc(Cl)cc3Cl)nc2C)cs1 | inactive: 6.11% | –
2 | CN(C)CCC1Sc2ccccc2Oc2ccccc21 (centres undefined) | – | inconclusive [inhibitor, full curve, poor fit]
3 | O=C(NC1CCCC1)C(c1ccc(F)cc1)N(Cc1ccccc1Cl)C(=O)CCl (centres undefined) | – | inconclusive [inhibitor, full curve, poor fit]
4 | COc1ccc(S(=O)(=O)NCC(c2ccco2)N2CCOCC2)cc1OC (centres undefined) | inactive: -0.966% | –
5 | CC1=Nc2nc(N3CCCCC3)c(C#N)c3c4c(nc(c23)N1)N(c1ccc(C(C)C)cc1)C(=O)C4 | inactive: -4.09% | –
6 | Nc1nc2n(n1)C1(CCCCC1)C1=C(CCCC1)N2 | – | inconclusive [inhibitor, full curve, poor fit]
7 | COc1cccc(C(=O)CSc2nnc(-c3cc(OC)cc(OC)c3)o2)c1 | – | inconclusive [inhibitor, full curve, poor fit]
8 | COc1ccccc1NC(=S)Nc1ccc2cn[nH]c2c1 | – | inconclusive [inhibitor, full curve]
9 | O=C(c1ccccn1)c1cc2ccccc2n1S(=O)(=O)c1ccccc1 | inactive: -8.24% | –
10 | COc1cccc(CNCc2cc(OC)cc(OC)c2)c1 | – | inconclusive [inhibitor, full curve, poor fit]
11 | COc1cccc2sc3ccc(NCc4ccc5c(c4)OCO5)cc3c(=O)c12 | – | inconclusive [inhibitor, full curve]
12 | CCCc1cc(C(=O)Nc2ccc(C)cc2)no1 | – | inconclusive [inhibitor, partial curve]
13 | CCN1C(=O)c2ccccc2Sc2ccc(NC(=O)c3ccc(Cl)cc3)cc21 | – | inconclusive [inhibitor, single point]
14 | COc1ccc(OC)c(-n2c(O)c(/C=C3\C(C)=Nc4ccccc43)c(=O)[nH]c2=O)c1 | – | inconclusive [inhibitor, full curve, poor fit]
15 | O=C1c2ccccc2NC(c2ccc(-c3cccs3)o2)N1O (centres undefined) | – | active: 31.6 µM
16 | O=C(CN1C(=O)NC2(CCCCCC2)C1=O)c1ccc(Cl)s1 | – | inconclusive [inhibitor, partial curve]
17 | O=C(O)c1ccc(NCc2cccnc2)c([N+](=O)[O-])c1 | – | inconclusive [inhibitor, full curve, poor fit]
18 | CC(C)(C)c1ccc(C(=O)NC(=S)NCC2CCCO2)cc1 (centres undefined) | – | inconclusive [inhibitor, partial curve]
19 | NS(=O)(=O)c1ccc(NC(=O)c2ccc(Cl)c(S(=O)(=O)NCc3ccco3)c2)cc1 | – | inconclusive [inhibitor, partial curve]

Reference: PubChem BioAssay AID485364 (National Center for Advancing Translational Sciences (NCATS), 2010)
